# Laboratory results taken from PubChem BioAssay AID485294 (National Center for Advancing Translational Sciences (NCATS), 2010).
# The whole screen tested about 370,000 compounds, of which about 150 (0.041%) were called active. Inconclusive results, whose numbers are uncertain, are shown with a selection of clear calls. The call rests on the fitted dose curve; in most records, active means well fitted inhibition curve with a large enough effect; inconclusive means small, poorly fitted or top-dose-only effect; inactive means flat fitted curve, though single readings scatter. Potencies of inconclusive entries are left out as doubtful fits.
# Biological target: Beta-lactamase (Escherichia coli (strain K12)) (UniProt P00811)
# UniProt P00811, sequence (P00811 whole entry, looked up): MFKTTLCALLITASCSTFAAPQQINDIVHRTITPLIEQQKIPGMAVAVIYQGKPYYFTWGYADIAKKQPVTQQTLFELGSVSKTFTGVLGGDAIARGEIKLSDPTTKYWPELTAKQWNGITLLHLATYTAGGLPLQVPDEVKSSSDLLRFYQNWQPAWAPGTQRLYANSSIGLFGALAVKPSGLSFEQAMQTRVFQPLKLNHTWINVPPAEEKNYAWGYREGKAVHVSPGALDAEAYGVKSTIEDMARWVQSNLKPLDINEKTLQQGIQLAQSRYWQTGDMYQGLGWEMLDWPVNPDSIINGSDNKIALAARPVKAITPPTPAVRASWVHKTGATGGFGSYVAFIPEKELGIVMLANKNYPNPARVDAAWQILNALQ
# Test: qHTS Inhibitors of AmpC Beta-Lactamase (assay with detergent); further: nearly all actives have a fitted effect of over 25% in size
# Details: AmpC hydrolysis of nitrocefin, absorbance 480 nm, 0.01% Triton; series mostly up to 114 µM
# Outline: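 AmpC (5.3 nM in the dispensed reagent) in 20 mM phosphate pH 7.0 with 0.01% (detergent screen) or 0.0001% Triton X-100 was preincubated with compounds for 15 min at room temperature. Nitrocefin was then added from an 800 uM solution, and hydrolysis was followed at 480 nm.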
# Potency means the concentration at half of the fitted maximal effect; tags describe the fitted curve by direction and shape.
row,Structure (SMILES),Potency
1,COc1ccc2[nH]cc(CCNC(=O)Nc3ccccc3C)c2c1,"inconclusive [inhibitor, full curve, poor fit]"
2,Cc1ccc(-c2nc(N/N=C/c3cccc([N+](=O)[O-])c3)c3ccccc3n2)cc1,inactive
3,COc1ccccc1CNC(c1ccccc1)c1ccccc1,inactive
4,COc1cc(/C=C/C(=O)Nc2cccnc2)cc(OC)c1OC,inactive
5,CN1C(=O)N(c2ccccc2)C(Nc2nncs2)C1(C)C (configuration not stated),"inconclusive [inhibitor, full curve]"
6,CCOc1ccc(S(=O)(=O)Nc2cccc(N(C)S(C)(=O)=O)c2)cc1,"inconclusive [inhibitor, partial curve]"
7,Cc1ccc(COc2ccccc2C(=S)N2CCCC2)cc1,"inconclusive [inhibitor, partial curve]"
8,COc1ccccc1N(C)S(=O)(=O)c1ccc(C(=O)Nc2nc(C)c(C(C)=O)s2)cc1,inactive
9,C=CCNC(=S)N/N=C1\CCS(=O)(=O)c2ccccc21,inactive
10,COCCCn1c(-c2ccc(OC)cc2)nc2c1c(=O)[nH]c(=O)n2Cc1ccccc1,inactive
11,COc1ccc(S(=O)(=O)NC(C)C)cc1C(=O)NC1CCCCC1,"inconclusive [inhibitor, partial curve]"
12,CC(C)(CO)NC(=O)C12CC3CC(CC(Br)(C3)C1)C2,inactive
13,COc1ccc(-n2c(C)c([N+](=O)[O-])c3ccc(O)c(CN(C)C)c32)cc1,inactive
14,CCSc1nnc(NC(=O)C(C)(C(F)(F)F)C(F)(F)F)s1,inactive
15,CCc1ccc(NC(=O)CSC2=Nc3ccccc3C3=NC(CCC(=O)NCc4cccs4)C(=O)N23)cc1 (configuration not stated),inactive
16,O=C(Nc1cccc2c1C(=O)NC2=O)c1ccc(S(=O)(=O)N2CCCC2)cc1,"inconclusive [inhibitor, full curve, poor fit]"
17,COc1ccc(CNCC(=O)N2CCC3(CC2)OCCO3)cc1,"inconclusive [inhibitor, partial curve, poor fit]"
18,c1coc(CNc2c3c(nc4ncnn24)CCCC3)c1,inactive
19,CCOC(=O)[C@H]1[C@H]2COc3ccc(Br)cc3[C@@H]2N2C(=O)CN(Cc3ccc(C)cc3)C(=O)[C@@]12C,inactive
20,CCCCn1nc(C(=O)N(CCOC)c2c(N)n(CCCC)c(=O)[nH]c2=O)c2ccccc2c1=O,inactive
21,Cc1csc(Sc2ccc(S(=O)(=O)N3CCCC3)cn2)n1,inactive
22,Cc1c(C(=O)OCC(=O)N(CC(C)C)c2c(N)n(Cc3ccccc3)c(=O)[nH]c2=O)oc2ccccc12,"inconclusive [inhibitor, full curve, poor fit]"
